These are yes or no findings as the source states them, for the method shown. Some results given as binding are weak or reduced against the parent protein; the word gives no strength.
T1: ARF10 (Arabidopsis thaliana) (UniProt Q9SKN5)
T1 sequence: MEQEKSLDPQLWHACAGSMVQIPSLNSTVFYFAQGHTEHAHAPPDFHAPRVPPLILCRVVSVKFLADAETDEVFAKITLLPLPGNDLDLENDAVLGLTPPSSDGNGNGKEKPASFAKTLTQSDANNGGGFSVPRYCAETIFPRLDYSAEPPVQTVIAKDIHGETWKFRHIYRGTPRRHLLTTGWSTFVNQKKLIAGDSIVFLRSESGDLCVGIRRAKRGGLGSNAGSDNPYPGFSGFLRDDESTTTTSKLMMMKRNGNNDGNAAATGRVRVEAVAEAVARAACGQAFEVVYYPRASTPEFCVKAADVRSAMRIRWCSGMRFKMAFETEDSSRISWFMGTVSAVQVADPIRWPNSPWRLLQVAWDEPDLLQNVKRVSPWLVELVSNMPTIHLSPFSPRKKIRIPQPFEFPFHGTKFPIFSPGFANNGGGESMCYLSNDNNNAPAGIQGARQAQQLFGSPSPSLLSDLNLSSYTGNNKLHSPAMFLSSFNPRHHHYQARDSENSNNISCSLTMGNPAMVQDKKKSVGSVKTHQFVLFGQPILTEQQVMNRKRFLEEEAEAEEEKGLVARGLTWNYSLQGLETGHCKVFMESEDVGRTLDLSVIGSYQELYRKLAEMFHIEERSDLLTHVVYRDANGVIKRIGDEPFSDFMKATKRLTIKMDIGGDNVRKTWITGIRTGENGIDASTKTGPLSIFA

T2: ARF17 (Arabidopsis thaliana) (UniProt Q84WU6)
T2 sequence: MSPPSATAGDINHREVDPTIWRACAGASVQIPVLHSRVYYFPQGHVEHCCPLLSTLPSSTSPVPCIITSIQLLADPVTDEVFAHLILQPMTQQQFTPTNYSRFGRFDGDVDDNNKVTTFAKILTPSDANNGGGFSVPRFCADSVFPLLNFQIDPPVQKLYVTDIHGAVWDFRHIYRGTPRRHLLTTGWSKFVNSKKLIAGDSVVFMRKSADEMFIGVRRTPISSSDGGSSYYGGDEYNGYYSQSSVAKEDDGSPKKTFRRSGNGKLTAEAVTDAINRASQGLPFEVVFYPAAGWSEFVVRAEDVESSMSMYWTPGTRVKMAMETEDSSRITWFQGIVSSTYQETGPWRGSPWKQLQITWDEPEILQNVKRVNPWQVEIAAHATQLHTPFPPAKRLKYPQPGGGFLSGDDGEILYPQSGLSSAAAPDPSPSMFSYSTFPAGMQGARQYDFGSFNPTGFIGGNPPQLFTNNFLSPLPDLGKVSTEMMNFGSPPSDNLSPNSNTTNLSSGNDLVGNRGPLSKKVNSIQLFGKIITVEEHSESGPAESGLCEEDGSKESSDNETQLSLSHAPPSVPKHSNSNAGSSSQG

T3: ARF16 (Arabidopsis thaliana) (UniProt Q93YR9)
T3 sequence: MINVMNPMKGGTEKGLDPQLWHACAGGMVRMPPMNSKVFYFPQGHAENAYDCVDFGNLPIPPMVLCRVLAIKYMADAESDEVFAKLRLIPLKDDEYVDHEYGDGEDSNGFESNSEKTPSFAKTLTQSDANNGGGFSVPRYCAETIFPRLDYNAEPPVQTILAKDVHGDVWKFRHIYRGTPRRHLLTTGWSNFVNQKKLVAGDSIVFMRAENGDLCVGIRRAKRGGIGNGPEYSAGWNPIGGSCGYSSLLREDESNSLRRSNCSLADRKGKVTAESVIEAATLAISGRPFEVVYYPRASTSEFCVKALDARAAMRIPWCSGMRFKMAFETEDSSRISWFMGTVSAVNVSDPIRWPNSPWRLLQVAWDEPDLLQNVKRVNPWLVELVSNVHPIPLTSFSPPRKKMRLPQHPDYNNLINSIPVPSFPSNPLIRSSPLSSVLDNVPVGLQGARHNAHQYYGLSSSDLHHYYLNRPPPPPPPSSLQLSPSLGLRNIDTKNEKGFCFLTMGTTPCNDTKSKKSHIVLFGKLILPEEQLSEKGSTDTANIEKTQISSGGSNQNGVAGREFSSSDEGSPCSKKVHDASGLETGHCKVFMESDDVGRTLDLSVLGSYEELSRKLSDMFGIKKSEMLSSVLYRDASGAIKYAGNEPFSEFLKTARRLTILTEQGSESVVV


Columns and labels:
Test in all cases: two-hybrid; S. cerevisiae AH109 co-transformed with pGBKT7-ARF (bait) and pGADT7-Aux/IAA (prey); growth on SD/-Ade-His-Leu-Trp against SD/-Leu/-Trp; at least 10 independent colonies; serial dilutions for strength
[1] = biological target: T1, ARF10 (Arabidopsis thaliana)
[2] = biological target: T2, ARF17 (Arabidopsis thaliana)
[3] = biological target: T3, ARF16 (Arabidopsis thaliana)

| Binder | binding [1] | binding [2] | binding [3] |
| --- | --- | --- | --- |
| Aux/IAA13 (protein, UniProt Q38831 1-247) MITELEMGKGESELELGLGLSLGGGTAAKIGKSGGGGAWGERGRLLTAKDFPSVGSKRAADSASHAGSSPPRSSSQVVGWPPIGSHRMNSLVNNQATKSAREEEEAGKKKVKDDEPKDVTKKVNGKVQVGFIKVNMDGVAIGRKVDLNAHSSYENLAQTLEDMFFRTNPGTVGLTSQFTKPLRLLDGSSEFVLTYEDKEGDWMLVGDVPWRMFINSVKRLRVMKTSEANGLAARNQEPNERQRKQPV | no binding | binds |  |
| Aux/IAA9 (protein, UniProt Q38827 1-338) MSPEEELQSNVSVASSSPTSNCISRNTLGGLKEHNYLGLSDCSSVGSSTLSPLAEDDKATISLKATELTLGLPGSQSPARDTELNLLSPAKLDEKPFFPLLPSKDEICSSSQKNNASGNKRGFSDTMDQFAEAKSSVYTEKNWMFPEAAATQSVTKKDVPQNIPKGQSSTTNNSSSPPAAKAQIVGWPPVRSYRKNTLATTCKNSDEVDGRPGSGALFVKVSMDGAPYLRKVDLRSYTNYGELSSALEKMFTTFTLGQCGSNGAAGKDMLSETKLKDLLNGKDYVLTYEDKDGDWMLVGDVPWEMFIDVCKKLKIMKGCDAIGLAAAPRAMEKSKMRA |  | binds |  |
| Aux/IAA5 (protein, UniProt P33078 1-163) MANESNNLGLEITELRLGLPGDIVVSGESISGKKRASPEVEIDLKCEPAKKSQVVGWPPVCSYRRKNSLERTKSSYVKVSVDGAAFLRKIDLEMYKCYQDLASALQILFGCYINFDDTLKESECVPIYEDKDGDWMLAGDVPWEMFLGSCKRLRIMKRSCNRG | binds | binds | binds |
| Aux/IAA8 (protein, UniProt Q38826 1-321) MSYRLLSVDKDELVTSPCLKERNYLGLSDCSSVDSSTIPNVVGKSNLNFKATELRLGLPESQSPERETDFGLLSPRTPDEKLLFPLLPSKDNGSATTGHKNVVSGNKRGFADTWDEFSGVKGSVRPGGGINMMLSPKVKDVSKSIQEERSHAKGGLNNAPAAKAQVVGWPPIRSYRKNTMASSTSKNTDEVDGKPGLGVLFVKVSMDGAPYLRKVDLRTYTSYQQLSSALEKMFSCFTLGQCGLHGAQGRERMSEIKLKDLLHGSEFVLTYEDKDGDWMLVGDVPWEIFTETCQKLKIMKGSDSIGLAPGAVEKSKNKERV |  | binds |  |
| Aux/IAA6 (protein, UniProt Q38824 1-189) MAKEGLALEITELRLGLPGDNYSEISVCGSSKKKKRVLSDMMTSSALDTENENSVVSSVEDESLPVVKSQAVGWPPVCSYRRKKNNEEASKAIGYVKVSMDGVPYMRKIDLGSSNSYINLVTVLENLFGCLGIGVAKEGKKCEYIIIYEDKDRDWMLVGDVPWQMFKESCKRLRIVKRSDATGFGLQQD | no binding |  |  |
| Aux/IAA15 (protein, UniProt Q9C966 1-179) MSPEEYVRVWPDSGDLGGTELTLALPGTPTNASEGPKKFGNKRRFLETVDLKLGEAHENNYISSMVTNDQLVGWPPVATARKTVRRKYVKVALDGAAYLRKVDLGMYDCYGQLFTALENMFQGIITICRVTELERKGEFVATYEDKDGDLMLVGDVPWMMFVESCKRMRLMKTGDAIGL |  | binds |  |

Second part, the binder after the results:

| binding [1] | binding [2] | binding [3] | Binder |
| --- | --- | --- | --- |
| binds | binds | binds | Aux/IAA33 (protein, UniProt Q9FKM7 1-171) MNSFEPQSQDSLQRRFHQDNSTTQQPRDTTTPFIPKPASKNHNNSNSSSGAAGRSFQGFGLNVEDDLVSSVVPPVTVVLEGRSICQRISLDKHGSYQSLASALRQMFVDGADSTDDLDLSNAIPGHLIAYEDMENDLLLAGDLTWKDFVRVAKRIRILPVKGNTRQVKRNE |
| binds |  | binds | Aux/IAA32 (protein, UniProt Q8RYC6 1-191) MDPNTPADFFKGSSKFHTYYSQTKKGGGVIDLGLSLRTIQHETYLPPARMIGLDGYGELIDWSQPSYNSITQLKSEDTGHQRLAQGYYNNEGESRGKYAYVKVNLDGLVVGRKVCLVDQGAYATLALQLNDMFGMQTVSGLRLFQTESEFSLVYRDREGIWRNVGDVPWKEFVESVDRMRIARRNDALLPF |
| binds | binds | binds | Aux/IAA34 (protein, UniProt Q9C5X0 1-185) MYCSDPPHPLHLVASDKQQKDHKLILSWKKPTMDSDPLGVFPNSPKYHPYYSQTTEFGGVIDLGLSLRTIQHEIYHSSGQRYCSNEGYRRKWGYVKVTMDGLVVGRKVCVLDHGSYSTLAHQLEDMFGMQSVSGLRLFQMESEFCLVYRDEEGLWRNAGDVPWNEFIESVERLRITRRNDAVLPF |
|  | binds |  | Aux/IAA16 (protein, UniProt O24407 1-236) MINFEATELRLGLPGGNHGGEMAGKNNGKRGFSETVDLKLNLSSTAMDSVSKVDLENMKEKVVKPPAKAQVVGWPPVRSFRKNVMSGQKPTTGDATEGNDKTSGSSGATSSASACATVAYVKVSMDGAPYLRKIDLKLYKTYQDLSNALSKMFSSFTIGNYGPQGMKDFMNESKLIDLLNGSDYVPTYEDKDGDWMLVGDVPWEMFVDSCKRIRIMKGSEAIGLAPRALEKCKNRS |

Source: PMC4274898
